These are yes or no findings as the source states them, for the method shown. Binding seen in cells or lysates may run through a third protein. Some binding calls cover weakened binding; strength is not graded here. Sequences can lack the tags named with a protein.

Sequences and labels used below:
T1: CIDEA-HA (mouse) (UniProt O70302)
T1 sequence: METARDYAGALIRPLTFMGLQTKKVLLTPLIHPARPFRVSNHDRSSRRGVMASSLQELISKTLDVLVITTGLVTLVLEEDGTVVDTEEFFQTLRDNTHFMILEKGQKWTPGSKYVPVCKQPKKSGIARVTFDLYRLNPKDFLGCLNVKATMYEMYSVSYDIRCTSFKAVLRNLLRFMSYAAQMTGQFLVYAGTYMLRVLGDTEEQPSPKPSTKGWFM

B1: hCIDEC-(E186X)-v5 (domain or fragment, UniProt Q96AQ7 1-185)
chain: MEYAMKSLSLLYPKSLSRHVSVRTSVVTQQLLSEPSPKAPRARPCRVSTADRSVRKGIMAYSLEDLLLKVRDTLMLADKPFFLVLEEDGTTVETEEYFQALAGDTVFMVLQKGQKWQPPSEQGTRHPLSLSHKPAKKIDVARVTFDLYKLNPQDFIGCLNVKATFYDTYSLSYDLHCCGAKRIMK
B2: DFF45 (protein, UniProt O54786 1-331)
chain: MELSRGASAPDPDDVRPLKPCLLRRNHSRDQHGVAASSLEELRSKACELLAIDKSLTPITLVLAEDGTIVDDDDYFLCLPSNTKFVALACNEKWIYNDSDGGTAWVSQESFEADEPDSRAGVKWKNVARQLKEDLSSIILLSEEDLQALIDIPCAELAQELCQSCATVQGLQSTLQQVLDQREEARQSKQLLELYLQALEKEGNILSNQKESKAALSEELDAVDTGVGREMASEVLLRSQILTTLKEKPAPELSLSSQDLESVSKEDPKALAVALSWDIRKAETVQQACTTELALRLQQVQSLHSLRNLSARRSPLPGEPQRPKRAKRDSS
B3: hCIDEC-v5 (protein, UniProt Q96AQ7 1-238)
chain: MEYAMKSLSLLYPKSLSRHVSVRTSVVTQQLLSEPSPKAPRARPCRVSTADRSVRKGIMAYSLEDLLLKVRDTLMLADKPFFLVLEEDGTTVETEEYFQALAGDTVFMVLQKGQKWQPPSEQGTRHPLSLSHKPAKKIDVARVTFDLYKLNPQDFIGCLNVKATFYDTYSLSYDLHCCGAKRIMKEAFRWALFSMQATGHVLLGTSCYLQQLLDATEEGQPPKGKASSLIPTCLKILQ
B4: CIDEB (protein, UniProt O70303 1-219)
chain: MEYLSAFNPNGLLRSVSTVSSELSRRVWNSAPPPQRPFRVCDHKRTVRKGLTAASLQELLDKVLETLLLRGVLTLVLEEDGTAVDSEDFFQLLEDDTCLMVLEQGQSWSPKSGMLSYGLGREKPKHSKDIARITFDVYKQNPRDLFGSLNVKATFYGLYSMSCDFQGVGPKRVLRELLRWTSSLLQGLGHMLLGISSTLRHVVEGADRWQWHGQRHLHS
B5: CIDEA-△(162–197)-v5 (protein, UniProt O70302)
chain: METARDYAGALIRPLTFMGLQTKKVLLTPLIHPARPFRVSNHDRSSRRGVMASSLQELISKTLDVLVITTGLVTLVLEEDGTVVDTEEFFQTLRDNTHFMILEKGQKWTPGSKYVPVCKQPKKSGIARVTFDLYRLNPKDFLGCLNVKATMYEMYSVSYDIVLGDTEEQPSPKPSTKGWFM
B6: PLIN5 (protein, UniProt Q8BVZ1 1-463)
chain: MDQRGEDTTLAPHSRMSGDQTAQDPGSSLGELDQQNVVNRVVALPLVKATCTAVSSAYNSAKDRHPLLGSACRLAEHCVCSVTTCALDHAQPLLEHLQPQLATVNDLACRGLDKLEEKLPFLQQPSDMVVTSAKDTVAKSVTGMVDLAQRGRRWSGELRRSMSQAMDMVLGKSEKLVDRFLPMTEAELAVLAAEAEGPEVGTVEEQRQQQGYFVRLGSLSARLRHLAYEHSLGKLRQSKHRTQEMLAQLQETLELIQHMQRGASPSPTFHPPKTQELWGSWSPCLENGRSHSEVELETLALSRSLTLELQNAVDALAGCVRGLPPSAQAKVAEVQRSVDALQATFADAHCLGDVAPTALAEGRGSVARAHACVDEFLDLVLRAMPLPWLVGPFAPILVEQSEPLINLATCVDEVVGDPDPRWAHMDWPAQKRAWEAESADPGGQEAEPPRGQGKHTMMPELDF
B7: CIDEA-(1–118)-v5 (domain or fragment, UniProt O70302 1-118)
chain: METARDYAGALIRPLTFMGLQTKKVLLTPLIHPARPFRVSNHDRSSRRGVMASSLQELISKTLDVLVITTGLVTLVLEEDGTVVDTEEFFQTLRDNTHFMILEKGQKWTPGSKYVPVC
B8: DFF40 (protein, UniProt O54788 1-344)
chain: MCAVLRQPKCVKLRALHSACKFGVAARSCQELLRKGCVRFQLPMPGSRLCLYEDGTEVTDDCFPGLPNDAELLLLTAGETWHGYVSDITRFLSVFNEPHAGVIQAARQLLSDEQAPLRQKLLADLLHHVSQNITAETREQDPSWFEGLESRFRNKSGYLRYSCESRIRGYLREVSAYTSMVDEAAQEEYLRVLGSMCQKLKSVQYNGSYFDRGAEASSRLCTPEGWFSCQGPFDLESCLSKHSINPYGNRESRILFSTWNLDHIIEKKRTVVPTLAEAIQDGREVNWEYFYSLLFTAENLKLVHIACHKKTTHKLECDRSRIYRPQTGSRRKQPARKKRPARKR
B9: CIDEA-v5 (protein, UniProt O70302 1-217)
chain: METARDYAGALIRPLTFMGLQTKKVLLTPLIHPARPFRVSNHDRSSRRGVMASSLQELISKTLDVLVITTGLVTLVLEEDGTVVDTEEFFQTLRDNTHFMILEKGQKWTPGSKYVPVCKQPKKSGIARVTFDLYRLNPKDFLGCLNVKATMYEMYSVSYDIRCTSFKAVLRNLLRFMSYAAQMTGQFLVYAGTYMLRVLGDTEEQPSPKPSTKGWFM
B10: CIDEA-(R171E/R175E)-v5 (protein, UniProt O70302 1-217)
chain: METARDYAGALIRPLTFMGLQTKKVLLTPLIHPARPFRVSNHDRSSRRGVMASSLQELISKTLDVLVITTGLVTLVLEEDGTVVDTEEFFQTLRDNTHFMILEKGQKWTPGSKYVPVCKQPKKSGIARVTFDLYRLNPKDFLGCLNVKATMYEMYSVSYDIRCTSFKAVLENLLEFMSYAAQMTGQFLVYAGTYMLRVLGDTEEQPSPKPSTKGWFM
B11: CIDEC (protein, UniProt P56198 1-239)
chain: MDYAMKSLSLLYPRSLSRHVAVSTAVVTQQLVSKPSRETPRARPCRVSTADRKVRKGIMAHSLEDLLNKVQDILKLKDKPFSLVLEEDGTIVETEEYFQALAKDTMFMVLLKGQKWKPPSEQRKKRAQLALSQKPTKKIDVARVTFDLYKLNPQDFIGCLNVKATLYDTYSLSYDLHCYKAKRIVKEMLRWTLFSMQATGHMLLGTSSYMQQFLDATEEEQPAKAKPSSLLPACLKMLQ
B12: CIDEA-(116–217)-v5 (domain or fragment, UniProt O70302 116-217)
chain: PVCKQPKKSGIARVTFDLYRLNPKDFLGCLNVKATMYEMYSVSYDIRCTSFKAVLRNLLRFMSYAAQMTGQFLVYAGTYMLRVLGDTEEQPSPKPSTKGWFM
B13: CIDEA-△(126–155)-v5 (protein, UniProt O70302)
chain: METARDYAGALIRPLTFMGLQTKKVLLTPLIHPARPFRVSNHDRSSRRGVMASSLQELISKTLDVLVITTGLVTLVLEEDGTVVDTEEFFQTLRDNTHFMILEKGQKWTPGSKYVPVCKQPKKSGSVSYDIRCTSFKAVLRNLLRFMSYAAQMTGQFLVYAGTYMLRVLGDTEEQPSPKPSTKGWFM

In the experiment the target is T1, CIDEA-HA (mouse). Briefly: co-IP; anti-HA or anti-V5 antibody on Dynabeads Protein G incubated with lysate of transfected cells (Hela named for Figure 6K); lysis in 50 mM Tris pH 8.0, 150 mM NaCl, 1% TRITON X-100; Western blot.
As for B1, the binding result is reported as “binds”.
In the case of B2, the binding entry is reported as “no binding”.
Under B3 stands “binds”; under B4, “binds”.
In the case of B5, the binding result is reported as “binds”.
Turning to B6, the binding result is “binds”.
With B7 the entry was “no binding”.
As to B8, the binding entry is “no binding”.
On to B9, for which the binding entry is “binds”.
For B10, the binding result was “binds”.
As to B11, the binding result was “binds”.
Under B12 stands “binds”; under B13, “binds weakly”.

The record behind these values is article PMC4755750.
